In a collection of fitness landscapes (doi:10.1016/j.celrep.2020.107928):
In all, about 81,000 sequences were measured (“one-hybrid fitness for binding NBS DNA”: median about -0.1, highest 2% from about 0.36 on). The list shows a part of the results.

B1: Caulobacter ParB omega fusion; a variant is named by its letters at X, in order, B8GW30 (parent)
chain: MESVVVGEPGMSEGRRGLGRGLSALLGEVDAAPAQAPGEQLGGSREAPIEILQRNPDQPRRTFREEDLEDLSNSIREKGVLQPILVRPSPDTAGEYQIVAGERAWRAAQRAGLKTVPIMVRELDDLAVLEIGIIENVQRADLNVLEEALSYKVLMEKFERTQENIAQTIGKSXSHVANXMRLLXLPDEVQSYLVSGELTAXHARAIAAAADPVALAKQIIEGGLSVRETEALARKAPNLSAGKSKGGRPPRVKDTDTQALESDLSSVLGLDVSIDHRGSTGTLTITYATLEQLDDLCNRLTRGI

Variants of: B1
Assay: one-hybrid fitness for binding NBS DNA (the Noc-binding site; scaled: cognate 1, non-cognate 0); higher = stronger binding
Conditions: with NBS DNA site
Summary of the method: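 Fitness is the rescaled log change in variant-to-wild-type read ratio, measured by Illumina sequencing of plasmids before and after bacterial one-hybrid selection. The scale puts cognate at 1 and non-cognate at 0. Selection of Caulobacter ParB libraries, four specificity codons randomised, took place in E. coli USO with a HIS3 reporter, site 19 bp from the promoter, over 48 hours at 37°C on M9-minus-histidine with 0.1 mM IPTG and 5 mM 3-AT.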

| Variant | one-hybrid fitness for binding NBS DNA |
| --- | --- |
| SLCY | ≤ 0.2 |
| DTHD | ≤ 0.2 |
| RDQR | ≤ 0.2 |
| ACCS | ≤ 0.2 |
| SVFR | ≤ 0.2 |
| LWAD | ≤ 0.2 |
| VIGG | ≤ 0.2 |
| CGYG | ≤ 0.2 |
| TRRF | ≤ 0.2 |
| RCCC | ≤ 0.2 |
| WRLR | ≤ 0.2 |
| LEMR | ≤ 0.2 |
| RGMM | ≤ 0.2 |
| WITA | ≤ 0.2 |
| CEDR | ≤ 0.2 |
| LRGC | ≤ 0.2 |
| NEPL | ≤ 0.2 |
| RNME | ≤ 0.2 |
| HTTY | ≤ 0.2 |
| PMCW | ≤ 0.2 |
| LCRA | ≤ 0.2 |
| NGTT | ≤ 0.2 |
| IYEY | ≤ 0.2 |
| QPNL | ≤ 0.2 |

| Variant | one-hybrid fitness for binding NBS DNA |
| --- | --- |
| IRCR | 0.301 |
| PMVR | ≤ 0.2 |
| QSRQ | 0.413 |
| VFDS | ≤ 0.2 |
| IVVD | ≤ 0.2 |
| SYCG | ≤ 0.2 |
| SHTQ | ≤ 0.2 |
| VAHG | ≤ 0.2 |
| RANL | ≤ 0.2 |
| GMGT | ≤ 0.2 |
| NQVR | ≤ 0.2 |
| RLIR | 0.21 |
| EKSR | ≤ 0.2 |
| HKHC | ≤ 0.2 |
| QLDM | ≤ 0.2 |
| RMNY | ≤ 0.2 |
| SCPY | ≤ 0.2 |
| PDRQ | ≤ 0.2 |
| PRYL | ≤ 0.2 |
| QDSV | ≤ 0.2 |
| QWPY | ≤ 0.2 |
| EQAG | ≤ 0.2 |
| SPGT | ≤ 0.2 |
| PAHY | ≤ 0.2 |

| Variant | one-hybrid fitness for binding NBS DNA |
| --- | --- |
| MVHI | ≤ 0.2 |
| LLAV | ≤ 0.2 |
| RVRD | ≤ 0.2 |
| SREG | ≤ 0.2 |
| RNAV | ≤ 0.2 |
| QTDR | 0.483 |
| HNLG | ≤ 0.2 |
| QLWP | ≤ 0.2 |
| TECG | ≤ 0.2 |
| RFKT | 0.512 |
| HAEA | ≤ 0.2 |
| MCYS | ≤ 0.2 |
| QTWS | 0.444 |
| PDEC | ≤ 0.2 |
| RTQY | ≤ 0.2 |
| HGKG | ≤ 0.2 |
| DVNR | ≤ 0.2 |
| LWNN | ≤ 0.2 |
| GPAM | ≤ 0.2 |
| HAAR | ≤ 0.2 |
| KFSS | ≤ 0.2 |
| FKLT | ≤ 0.2 |
| PAGR | ≤ 0.2 |
| PGLW | ≤ 0.2 |

| Variant | one-hybrid fitness for binding NBS DNA |
| --- | --- |
| QMKW | 0.323 |
| NYLS | ≤ 0.2 |
| HECG | ≤ 0.2 |
| YQVS | ≤ 0.2 |
| WWKG | ≤ 0.2 |
| PTFT | ≤ 0.2 |
| SETS | ≤ 0.2 |
| PNGV | ≤ 0.2 |
| QYNY | 0.221 |
| WRMT | ≤ 0.2 |
| HQHG | ≤ 0.2 |
| SCKD | ≤ 0.2 |
| CFYL | 0.332 |
| IYYG | ≤ 0.2 |
| FPPF | ≤ 0.2 |
| PRAR | 0.219 |
| YEFT | ≤ 0.2 |
| GAHT | ≤ 0.2 |
| THYN | ≤ 0.2 |
| YYCT | ≤ 0.2 |
| DNQR | ≤ 0.2 |
| LQGS | ≤ 0.2 |
| RQCW | ≤ 0.2 |
| DYVI | ≤ 0.2 |

| Variant | one-hybrid fitness for binding NBS DNA |
| --- | --- |
| AGRM | ≤ 0.2 |
| CFIG | ≤ 0.2 |
| DGII | ≤ 0.2 |
| RSCH | ≤ 0.2 |
| TFYR | ≤ 0.2 |
| LPQW | ≤ 0.2 |
| QDHR | ≤ 0.2 |
| HIDC | ≤ 0.2 |
| DTSA | ≤ 0.2 |
| KKWC | ≤ 0.2 |
| TVIW | ≤ 0.2 |
| KNKW | ≤ 0.2 |
| HWSQ | ≤ 0.2 |
| IRQK | ≤ 0.2 |
| WWVS | ≤ 0.2 |
| QCYL | ≤ 0.2 |
| RIRN | ≤ 0.2 |
| CRIY | ≤ 0.2 |
| TRSW | ≤ 0.2 |
| AKTG | ≤ 0.2 |
| ARAR | ≤ 0.2 |
| LMLR | ≤ 0.2 |
| AGRL | ≤ 0.2 |
| FITF | ≤ 0.2 |

| Variant | one-hybrid fitness for binding NBS DNA |
| --- | --- |
| QMPW | ≤ 0.2 |
| YNIS | ≤ 0.2 |
| QHNH | 0.297 |
| NNYS | ≤ 0.2 |
| TEVV | ≤ 0.2 |
| TMWI | ≤ 0.2 |
| TLRL | ≤ 0.2 |
| LHIG | ≤ 0.2 |
| LNEL | ≤ 0.2 |
| FYLW | ≤ 0.2 |
| IRRI | ≤ 0.2 |
| GAQV | ≤ 0.2 |
| YYFS | ≤ 0.2 |
| VKNY | ≤ 0.2 |
| PECN | ≤ 0.2 |
| LCYF | ≤ 0.2 |
| GESL | ≤ 0.2 |
| SFHA | ≤ 0.2 |
| REKV | ≤ 0.2 |
| TFNF | ≤ 0.2 |
| PPPV | ≤ 0.2 |
| CDKT | ≤ 0.2 |
| VNTV | ≤ 0.2 |
| ASSQ | ≤ 0.2 |

| Variant | one-hybrid fitness for binding NBS DNA |
| --- | --- |
| GTPI | ≤ 0.2 |
| QYRN | 0.38 |
| CVNE | ≤ 0.2 |
| SFKH | ≤ 0.2 |
| HILA | ≤ 0.2 |
| GSCP | ≤ 0.2 |
| PTAE | ≤ 0.2 |
| HYMC | ≤ 0.2 |
| LATH | ≤ 0.2 |
| SAQI | ≤ 0.2 |
| QEAI | ≤ 0.2 |
| HAAK | ≤ 0.2 |
| TARM | ≤ 0.2 |
| RGCI | ≤ 0.2 |
| QVAQ | ≤ 0.2 |
| DKHD | ≤ 0.2 |
| QFEN | ≤ 0.2 |
| FGHG | ≤ 0.2 |
| GGWK | ≤ 0.2 |
| RISY | ≤ 0.2 |
| GSGA | ≤ 0.2 |
| YFKT | ≤ 0.2 |
| SAYY | ≤ 0.2 |
| HADG | ≤ 0.2 |

| Variant | one-hybrid fitness for binding NBS DNA |
| --- | --- |
| SDHC | ≤ 0.2 |
| CRFC | ≤ 0.2 |
| RVNP | ≤ 0.2 |
| AWCV | ≤ 0.2 |
| RAQY | ≤ 0.2 |
| HQNY | ≤ 0.2 |
| ERDG | ≤ 0.2 |
| SMCY | ≤ 0.2 |
| TRTQ | ≤ 0.2 |
| RIAN | ≤ 0.2 |
| LMTG | ≤ 0.2 |
| SFNW | ≤ 0.2 |
| GPCL | ≤ 0.2 |
| EMHS | ≤ 0.2 |
| SCDR | ≤ 0.2 |
| DNHR | ≤ 0.2 |
| GMRM | ≤ 0.2 |
| NKTS | ≤ 0.2 |
| QARK | 0.37 |
| HNNL | ≤ 0.2 |
| TYKV | ≤ 0.2 |
| RCVE | ≤ 0.2 |
| DRSI | ≤ 0.2 |
| VNCS | ≤ 0.2 |

| Variant | one-hybrid fitness for binding NBS DNA |
| --- | --- |
| SHGS | ≤ 0.2 |
| RLVP | ≤ 0.2 |
| KTRH | ≤ 0.2 |
| LAIV | ≤ 0.2 |
| SYMR | ≤ 0.2 |
| TRTG | ≤ 0.2 |
| HWQS | ≤ 0.2 |
| CSPV | ≤ 0.2 |
| CPQV | ≤ 0.2 |
| GFRA | ≤ 0.2 |
| WCGY | ≤ 0.2 |
| SITL | ≤ 0.2 |
| IPWE | ≤ 0.2 |
| HKWR | ≤ 0.2 |
| RIEV | ≤ 0.2 |
| QMPS | 0.235 |
| LWYP | ≤ 0.2 |
| QFAM | ≤ 0.2 |
| QYIV | ≤ 0.2 |
| TQTT | ≤ 0.2 |
| PLCV | ≤ 0.2 |
| IQGG | ≤ 0.2 |
| YYIG | ≤ 0.2 |
| RAQH | ≤ 0.2 |

| Variant | one-hybrid fitness for binding NBS DNA |
| --- | --- |
| PQEI | ≤ 0.2 |
| ELSP | ≤ 0.2 |
| TLIT | ≤ 0.2 |
| LIIS | ≤ 0.2 |
| NKSI | ≤ 0.2 |
| NPID | ≤ 0.2 |
| THHF | ≤ 0.2 |
| VFNR | ≤ 0.2 |
| HQNK | ≤ 0.2 |
| QVAF | ≤ 0.2 |
| ASHR | ≤ 0.2 |
| HTTE | ≤ 0.2 |
| MFAG | ≤ 0.2 |
| IALI | ≤ 0.2 |
| EAAS | ≤ 0.2 |
| GREH | ≤ 0.2 |
| DCYN | ≤ 0.2 |
| VDDQ | ≤ 0.2 |
| NSMQ | ≤ 0.2 |
| LYYY | ≤ 0.2 |
| PFYI | ≤ 0.2 |
| LWHM | ≤ 0.2 |
| TQYN | ≤ 0.2 |
| LATE | ≤ 0.2 |

| Variant | one-hybrid fitness for binding NBS DNA |
| --- | --- |
| ANML | ≤ 0.2 |
| QDKL | ≤ 0.2 |
| FPCS | ≤ 0.2 |
| QTHV | 0.288 |
| APDT | ≤ 0.2 |
| WRGH | ≤ 0.2 |
| RQHQ | ≤ 0.2 |
| QNNG | ≤ 0.2 |
| RVET | ≤ 0.2 |
| TLDM | ≤ 0.2 |
| FAAP | ≤ 0.2 |
| DPEW | ≤ 0.2 |
| ECDS | ≤ 0.2 |
| PYSG | ≤ 0.2 |
| ESKR | 0.206 |
| SWSR | ≤ 0.2 |
| HSAA | ≤ 0.2 |
| FRST | ≤ 0.2 |
| TNVL | ≤ 0.2 |
| LTRF | ≤ 0.2 |
| NCER | ≤ 0.2 |
| NNQE | ≤ 0.2 |
| RMTT | 0.434 |
| LAIL | ≤ 0.2 |

| Variant | one-hybrid fitness for binding NBS DNA |
| --- | --- |
| NPTC | ≤ 0.2 |
| PVCR | ≤ 0.2 |
| QTEL | ≤ 0.2 |
| GNDS | ≤ 0.2 |
| ANHI | ≤ 0.2 |
| THVT | ≤ 0.2 |
| CQTT | ≤ 0.2 |
| HINA | ≤ 0.2 |
| QLNA | 0.219 |
| IKTC | ≤ 0.2 |
| SVFV | ≤ 0.2 |
| VGSG | ≤ 0.2 |
| NKQR | ≤ 0.2 |
| QELN | ≤ 0.2 |
| FGGC | ≤ 0.2 |
| WSRG | ≤ 0.2 |
| VTSK | ≤ 0.2 |
| NVKQ | ≤ 0.2 |
| VMGL | ≤ 0.2 |
| AYPD | ≤ 0.2 |
| TGTE | ≤ 0.2 |
| QTIH | 0.221 |
| GCAA | ≤ 0.2 |
| EAEG | ≤ 0.2 |

| Variant | one-hybrid fitness for binding NBS DNA |
| --- | --- |
| LLRK | ≤ 0.2 |
| PPLD | ≤ 0.2 |
| CPGT | ≤ 0.2 |
| IFHS | ≤ 0.2 |
| DAQW | ≤ 0.2 |
| DHHV | ≤ 0.2 |
| IATE | ≤ 0.2 |
| CNSS | ≤ 0.2 |
| GYWG | ≤ 0.2 |
| MSLL | ≤ 0.2 |
| QQAR | 0.654 |
| WALC | ≤ 0.2 |
| WGHS | ≤ 0.2 |
| FDRR | ≤ 0.2 |
| GLLR | ≤ 0.2 |
| TRNF | ≤ 0.2 |
| EAYR | ≤ 0.2 |
| CATI | ≤ 0.2 |
